# According to the supplement of paper PMC8728848:
# The list shows a part of the results.
# What was measured:
# Assay in all cases: glycan array binding signal (z-score within array); higher = stronger binding
# Details in all cases: glycan notation: IUPAC condensed, linker removed
# [1] = target: GlcNAc(b1-2)Man(a1-3)[GlcNAc(b1-2)Man(a1-6)]Man(b1-4)GlcNAc(b1-4)GlcNAc
# Method in brief: (§1)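 The binding signal is a Z-score computed within each array and averaged over linkers. Arrays of the same protein sequence at different concentrations or buffers were also averaged together. Data originate from 3228 arrays in the Consortium for Functional Glycomics database, kept only where the protein sequence was available.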
# [2] = target: GlcNAc(b1-2)Man(a1-3)[GlcNAc(b1-2)Man(a1-6)]Man(b1-4)GlcNAc(b1-4)[Fuc(a1-6)]GlcNAc
# Method in brief: as §1
# [3] = target: GlcNAc(b1-2)Man(a1-3)[GlcNAc(b1-4)][GlcNAc(b1-2)Man(a1-6)]Man(b1-4)GlcNAc(b1-4)GlcNAc
# Method in brief: as §1
# [4] = target: GlcNAc(b1-2)Man(a1-3)[GlcNAc(b1-4)][GlcNAc(b1-2)Man(a1-6)]Man(b1-4)GlcNAc(b1-4)[Fuc(a1-6)]GlcNAc
# Method in brief: as §1
# [5] = target: GlcNAc(b1-2)[GlcNAc(b1-4)]Man(a1-3)[GlcNAc(b1-2)Man(a1-6)]Man(b1-4)GlcNAc(b1-4)GlcNAc
# Method in brief: as §1
# [6] = target: GlcNAc(b1-2)[GlcNAc(b1-4)]Man(a1-3)[GlcNAc(b1-4)][GlcNAc(b1-2)Man(a1-6)]Man(b1-4)GlcNAc(b1-4)GlcNAc
# Method in brief: as §1
# [7] = target: GlcNAc(b1-2)[GlcNAc(b1-4)]Man(a1-3)[GlcNAc(b1-4)][GlcNAc(b1-2)[GlcNAc(b1-6)]Man(a1-6)]Man(b1-4)GlcNAc(b1-4)GlcNAc
# Method in brief: as §1
# [8] = target: GlcNAc(b1-2)[GlcNAc(b1-4)]Man(a1-3)[GlcNAc(b1-4)][GlcNAc(b1-2)[GlcNAc(b1-6)]Man(a1-6)]Man(b1-4)GlcNAc(b1-4)[Fuc(a1-6)]GlcNAc
# Method in brief: as §1
# [9] = target: GlcNAc(b1-2)[GlcNAc(b1-6)]Man(a1-6)[GlcNAc(b1-2)Man(a1-3)]Man(b1-4)GlcNAc(b1-4)GlcNAc
# Method in brief: as §1
# [10] = target: GlcNAc(b1-2)[GlcNAc(b1-6)]Man(a1-6)[GlcNAc(b1-2)Man(a1-3)]Man(b1-4)GlcNAc(b1-4)[Fuc(a1-6)]GlcNAc
# Method in brief: as §1
# [11] = target: GlcNAc(b1-2)[GlcNAc(b1-6)]Man(a1-6)[GlcNAc(b1-4)][GlcNAc(b1-2)Man(a1-3)]Man(b1-4)GlcNAc(b1-4)GlcNAc
# Method in brief: as §1
# [12] = target: GlcNAc(b1-3)Fuc
# Method in brief: as §1
# [13] = target: GlcNAc(b1-3)Gal
# Method in brief: as §1
# [14] = target: GlcNAc(b1-3)Gal(b1-3)GalNAc
# Method in brief: as §1
# [15] = target: GlcNAc(b1-3)Gal(b1-4)Glc
# Method in brief: as §1
# [16] = target: GlcNAc(b1-3)Gal(b1-4)GlcNAc
# Method in brief: as §1
# [17] = target: GlcNAc(b1-3)Gal(b1-4)GlcNAc(b1-2)Man(a1-3)[GlcNAc(b1-3)Gal(b1-4)GlcNAc(b1-2)Man(a1-6)]Man(b1-4)GlcNAc(b1-4)GlcNAc
# Method in brief: as §1
# [18] = target: GlcNAc(b1-3)Gal(b1-4)GlcNAc(b1-2)Man(a1-3)[GlcNAc(b1-3)Gal(b1-4)GlcNAc(b1-2)Man(a1-6)]Man(b1-4)GlcNAc(b1-4)[Fuc(a1-6)]GlcNAc
# Method in brief: as §1
# [19] = target: GlcNAc(b1-3)Gal(b1-4)GlcNAc(b1-2)[GlcNAc(b1-3)Gal(b1-4)GlcNAc(b1-6)]Man(a1-6)[GlcNAc(b1-3)Gal(b1-4)GlcNAc(b1-2)Man(a1-3)]Man(b1-4)GlcNAc(b1-4)GlcNAc
# Method in brief: as §1
# [20] = target: GlcNAc(b1-3)Gal(b1-4)GlcNAc(b1-3)Gal(b1-4)GlcNAc
# Method in brief: as §1
# [21] = target: GlcNAc(b1-3)Gal(b1-4)GlcNAc(b1-3)Gal(b1-4)GlcNAc(b1-2)Man(a1-3)[GlcNAc(b1-3)Gal(b1-4)GlcNAc(b1-3)Gal(b1-4)GlcNAc(b1-2)Man(a1-6)]Man(b1-4)GlcNAc(b1-4)GlcNAc
# Method in brief: as §1
# [22] = target: GlcNAc(b1-3)Gal(b1-4)GlcNAc(b1-3)Gal(b1-4)GlcNAc(b1-2)Man(a1-3)[GlcNAc(b1-3)Gal(b1-4)GlcNAc(b1-3)Gal(b1-4)GlcNAc(b1-2)Man(a1-6)]Man(b1-4)GlcNAc(b1-4)[Fuc(a1-6)]GlcNAc
# Method in brief: as §1
# [23] = target: GlcNAc(b1-3)Gal(b1-4)GlcNAc(b1-3)Gal(b1-4)GlcNAc(b1-2)[GlcNAc(b1-3)Gal(b1-4)GlcNAc(b1-3)Gal(b1-4)GlcNAc(b1-6)]Man(a1-6)[GlcNAc(b1-3)Gal(b1-4)GlcNAc(b1-3)Gal(b1-4)GlcNAc(b1-2)Man(a1-3)]Man(b1-4)GlcNAc(b1-4)[Fuc(a1-6)]GlcNAc
# Method in brief: as §1
# [24] = target: GlcNAc(b1-3)Gal(b1-4)GlcNAc(b1-3)Gal(b1-4)GlcNAc(b1-3)Gal(b1-4)GlcNAc(b1-2)Man(a1-3)[GlcNAc(b1-3)Gal(b1-4)GlcNAc(b1-3)Gal(b1-4)GlcNAc(b1-3)Gal(b1-4)GlcNAc(b1-2)Man(a1-6)]Man(b1-4)GlcNAc(b1-4)GlcNAc
# Method in brief: as §1
# [25] = target: GlcNAc(b1-3)Gal(b1-4)GlcNAc(b1-3)Gal(b1-4)GlcNAc(b1-3)Gal(b1-4)GlcNAc(b1-2)Man(a1-3)[GlcNAc(b1-3)Gal(b1-4)GlcNAc(b1-3)Gal(b1-4)GlcNAc(b1-3)Gal(b1-4)GlcNAc(b1-2)Man(a1-6)]Man(b1-4)GlcNAc(b1-4)[Fuc(a1-6)]GlcNAc
# Method in brief: as §1
# [26] = target: GlcNAc(b1-3)Gal(b1-4)GlcNAc(b1-3)Gal(b1-4)GlcNAc(b1-3)Gal(b1-4)GlcNAc(b1-2)[GlcNAc(b1-3)Gal(b1-4)GlcNAc(b1-3)Gal(b1-4)GlcNAc(b1-3)Gal(b1-4)GlcNAc(b1-6)]Man(a1-6)[GlcNAc(b1-3)Gal(b1-4)GlcNAc(b1-3)Gal(b1-4)GlcNAc(b1-3)Gal(b1-4)GlcNAc(b1-2)Man(a1-3)]Man(b1-4)GlcNAc(b1-4)[Fuc(a1-6)]GlcNAc
# Method in brief: as §1
# [27] = target: GlcNAc(b1-3)Gal(b1-4)GlcNAc(b1-3)Gal(b1-4)GlcNAc(b1-3)Gal(b1-4)GlcNAc(b1-3)Gal(b1-4)GlcNAc(b1-2)Man(a1-3)[GlcNAc(b1-3)Gal(b1-4)GlcNAc(b1-3)Gal(b1-4)GlcNAc(b1-3)Gal(b1-4)GlcNAc(b1-3)Gal(b1-4)GlcNAc(b1-2)Man(a1-6)]Man(b1-4)GlcNAc(b1-4)GlcNAc
# Method in brief: as §1
# [28] = target: GlcNAc(b1-3)Gal(b1-4)GlcNAc(b1-3)Gal(b1-4)GlcNAc(b1-3)Gal(b1-4)GlcNAc(b1-3)Gal(b1-4)GlcNAc(b1-2)Man(a1-3)[GlcNAc(b1-3)Gal(b1-4)GlcNAc(b1-3)Gal(b1-4)GlcNAc(b1-3)Gal(b1-4)GlcNAc(b1-3)Gal(b1-4)GlcNAc(b1-2)Man(a1-6)]Man(b1-4)GlcNAc(b1-4)[Fuc(a1-6)]GlcNAc
# Method in brief: as §1
# [29] = target: GlcNAc(b1-3)Gal(b1-4)GlcNAc(b1-3)Gal(b1-4)GlcNAc(b1-3)Gal(b1-4)GlcNAc(b1-3)Gal(b1-4)GlcNAc(b1-2)[GlcNAc(b1-3)Gal(b1-4)GlcNAc(b1-3)Gal(b1-4)GlcNAc(b1-3)Gal(b1-4)GlcNAc(b1-3)Gal(b1-4)GlcNAc(b1-6)]Man(a1-6)[GlcNAc(b1-3)Gal(b1-4)GlcNAc(b1-3)Gal(b1-4)GlcNAc(b1-3)Gal(b1-4)GlcNAc(b1-3)Gal(b1-4)GlcNAc(b1-2)Man(a1-3)]Man(b1-4)GlcNAc(b1-4)[Fuc(a1-6)]GlcNAc
# Method in brief: as §1
# [30] = target: GlcNAc(b1-3)Gal(b1-4)GlcNAc(b1-3)Gal(b1-4)GlcNAc(b1-3)GalNAc
# Method in brief: as §1
# [31] = target: GlcNAc(b1-3)Gal(b1-4)GlcNAc(b1-3)GalNAc
# Method in brief: as §1
# [32] = target: GlcNAc(b1-3)Gal(b1-4)GlcNAc(b1-3)[GlcNAc(b1-3)Gal(b1-4)GlcNAc(b1-3)]GalNAc
# Method in brief: as §1
# [33] = target: GlcNAc(b1-3)Gal(b1-4)GlcNAc(b1-6)[Gal(b1-3)]GalNAc
# Method in brief: as §1
# [34] = target: GlcNAc(b1-3)Gal(b1-4)GlcNAc(b1-6)[GlcNAc(b1-3)Gal(b1-3)]GalNAc
# Method in brief: as §1
# [35] = target: GlcNAc(b1-3)Gal(b1-4)GlcNAc(b1-6)[GlcNAc(b1-3)]Gal(b1-4)GlcNAc
# Method in brief: as §1
# [36] = target: GlcNAc(b1-3)GalNAc
# Method in brief: as §1
# [37] = target: GlcNAc(b1-3)Man
# Method in brief: as §1
# [38] = target: GlcNAc(b1-3)[GlcNAc(b1-4)][GlcNAc(b1-6)]GlcNAc
# Method in brief: as §1
binder,measurement,setting,value
"LSECtin (Homo sapiens), Q6UXB4 (protein) MDTTRYSKWGGSSEEVPGGPWGRWVHWSRRPLFLALAVLVTTVLWAVILSILLSKASTERAALLDGHDLLRTNASKQTAALGALKEEVGDCHSCCSGTQAQLQTTRAELGEAQAKLMEQESALRELRERVTQGLAEAGRGREDVRTELFRALEAVRLQNNSCEPCPTSWLSFEGSCYFFSVPKTTWAAAQDHCADASAHLVIVGGLDEQGFLTRNTRGRGYWLGLRAVRHLGKVQGYQWVDGVSLSFSHWNQGEPNDAWGRENCVMMLHTGLWNDAPCDSEKDGWICEKRHNC",glycan array binding signal (z-score),[1],6.75
same,glycan array binding signal (z-score),[2],1.91
same,glycan array binding signal (z-score),[3],6.57
same,glycan array binding signal (z-score),[4],6.3
same,glycan array binding signal (z-score),[5],3.06
same,glycan array binding signal (z-score),[6],0.062
same,glycan array binding signal (z-score),[7],-0.117
same,glycan array binding signal (z-score),[8],-0.132
same,glycan array binding signal (z-score),[9],7.17
same,glycan array binding signal (z-score),[10],9.94
same,glycan array binding signal (z-score),[11],2.46
same,glycan array binding signal (z-score),[12],-0.125
same,glycan array binding signal (z-score),[13],-0.23
same,glycan array binding signal (z-score),[14],-0.115
same,glycan array binding signal (z-score),[15],-0.109
same,glycan array binding signal (z-score),[16],-0.162
same,glycan array binding signal (z-score),[17],-0.124
same,glycan array binding signal (z-score),[18],-0.126
same,glycan array binding signal (z-score),[19],-0.136
same,glycan array binding signal (z-score),[20],-0.225
same,glycan array binding signal (z-score),[21],-0.119
same,glycan array binding signal (z-score),[22],-0.134
same,glycan array binding signal (z-score),[23],-0.135
same,glycan array binding signal (z-score),[24],-0.126
same,glycan array binding signal (z-score),[25],-0.132
same,glycan array binding signal (z-score),[26],-0.136
same,glycan array binding signal (z-score),[27],-0.132
same,glycan array binding signal (z-score),[28],-0.139
same,glycan array binding signal (z-score),[29],-0.127
same,glycan array binding signal (z-score),[30],-0.131
same,glycan array binding signal (z-score),[31],-0.131
same,glycan array binding signal (z-score),[32],-0.126
same,glycan array binding signal (z-score),[33],-0.133
same,glycan array binding signal (z-score),[34],-0.143
same,glycan array binding signal (z-score),[35],-0.134
same,glycan array binding signal (z-score),[36],-0.143
same,glycan array binding signal (z-score),[37],-0.205
same,glycan array binding signal (z-score),[38],-0.118
